Several values for one entry are separate records, joined by “and”; a condition that tells them apart may be missing. Equal values may be shown once. Inconclusive results, whose numbers are uncertain, are shown with a selection of clear calls. Potencies of inconclusive entries are doubtful fits and often do not repeat. The source holds several records for some structures; these can differ, active in one and inactive in another. Activity calls are given as the source filed them. Unless noted, the call rests on the fitted dose curve.
Assay: qHTS assay to identify small molecule agonists of the hypoxia (HIF-1) signaling pathway - cell viability counter screen (AID 1224844); further: nearly all actives have a fitted effect of over 50% in size
Settings: HRE-bla ME-180 viability, CellTiter-Glo luminescence, 17 h; series mostly up to 76.8 µM
How it was run: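 Cytotoxicity was measured in parallel with the HRE-driven beta-lactamase readout: after 17 hrs of compound exposure at 37C, HRE-bla ME-180 cells received CellTiter-Glo and luminescence was recorded 30 min later.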
On the % scale 0 is the no-effect control and ±100 the full control effect; potency means the concentration at half of the fitted maximal effect; tags describe the fitted curve by direction and shape or compound fluorescence and quenching.

Question: Which Potency does the source give for `CNC(=O)Oc1cccc2ccccc12` here?
Answer: The Potency was “inactive”.

Question: For `N#C/C=C/C#N`, which Potency is on record?
Answer: Its Potency is inconclusive: 57.5 µM [rising, single point].

Question: For `O=C=Nc1ccc(Cl)cc1`, which Potency is on record?
Answer: The Potency was inconclusive: 2.19 µM [cytotoxic, full curve, poor fit].

Question: With `CC(CC(C#N)(c1ccccc1)c1ccccc1)N(C)C` (stereo unspecified) as the molecule, how does the Potency read?
Answer: The Potency was inconclusive: 54.7 µM [cytotoxic, partial curve, poor fit].

Question: Which Potency does the source give for `Nc1cccnc1` here?
Answer: The Potency was “inactive”.

Question: For `CCCN(CCC)c1c([N+](=O)[O-])cc(C(C)C)cc1[N+](=O)[O-]`, which Potency is on record?
Answer: Its Potency is inconclusive: 5.49 µM [cytotoxic, single point].

Question: For `Nc1c(Cl)c(Cl)c(Cl)c(Cl)c1Cl`, which Potency is on record?
Answer: Its Potency is “inactive”.

Question: With `FC(F)(F)c1cccc(C2=CCN(CCc3ccc4ccccc4c3)CC2)c1` as the molecule, how does the Potency read?
Answer: Its Potency is inconclusive: 26.8 µM [cytotoxic, single point].

Question: For `COP(=S)(OC)Oc1nc(Cl)c(Cl)cc1Cl`, which Potency is on record?
Answer: The Potency was inconclusive: 54.9 µM [cytotoxic, partial curve, poor fit].

Question: For `c1ccc2sc(SNC3CCCCC3)nc2c1`, which Potency is on record?
Answer: The Potency was inconclusive: 54.4 µM [cytotoxic, single point] and inconclusive: 54.9 µM [cytotoxic, single point].

Question: Which Potency does the source give for `NC(=O)CI` here?
Answer: Its Potency is active: 35 µM.

Question: Which Potency does the source give for `CCCCN(CCCC)SN(C)C(=O)Oc1cccc2c1OC(C)(C)C2` here?
Answer: The Potency was inconclusive: 62.6 µM [cytotoxic, partial curve, poor fit].

Question: Which Potency does the source give for `COP(=O)(OC)OC` here?
Answer: The Potency was inconclusive: 62.2 µM [cytotoxic, partial curve, poor fit].

Question: For `CC(C)c1c(CN(C)C(C)Cc2ccccc2)n(C)n(-c2ccccc2)c1=O` (stereo unspecified), which Potency is on record?
Answer: Its Potency is inconclusive: 23.9 µM [cytotoxic, partial curve].

Question: Which Potency does the source give for `Nc1ccccc1C(=O)Oc1ccc2ccccc2c1` here?
Answer: The Potency was inconclusive: 54.9 µM [cytotoxic, single point].

Question: With `O=[N+]([O-])c1ccc(Oc2ccc(Cl)cc2Cl)cc1` as the molecule, how does the Potency read?
Answer: The Potency was inconclusive: 62 µM [cytotoxic, single point].

Assay: qHTS assay to identify small molecule agonists of H2AX (AID 1224845; active means well fitted activation curve with a large enough effect in the signal ratio in the repeat runs, not every such curve was filed as active; inconclusive means weak or mixed curves; the % refers to the signal ratio)
Settings: CHO-K1 phospho-H2AX Ser139 HTRF, 3 h; activation (H2AX phosphorylation): at 154 µM (top of the series) unless noted
How it was run: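 Wild-type CHO-K1 cells, plated overnight, exposed 3hr at 37C to 15 concentrations (0.76% DMSO final). Lysed, then HTRF anti-pH2AX (S139) cryptate and anti-H2AX-d2 antibodies, 24 hr room temperature; 665/620 nm emission read.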

Question: For `CNC(=O)Oc1cccc2ccccc12`, which Potency is on record?
Answer: Its Potency is active: 99.8 µM and inconclusive: 101 µM [activator].

Question: For `CC(C)(C)C(O)C(Oc1ccc(-c2ccccc2)cc1)n1cncn1` (stereo unspecified), which Potency is on record?
Answer: The Potency was inconclusive: 113 µM [activator].

Question: Which Potency does the source give for `Nc1ccc(N=Nc2ccc(-c3ccc(N=Nc4c(S(=O)(=O)O)cc5cc(S(=O)(=O)O)c(N=Nc6ccccc6)c(O)c5c4N)cc3)cc2)c(N)c1` here?
Answer: Its Potency is inconclusive: 20.5 µM [falling, partial curve].

Question: For `Cc1cc(C)c(C(=O)P(=O)(c2ccccc2)c2ccccc2)c(C)c1`, which Potency is on record?
Answer: Its Potency is inconclusive: 127 µM [activator, single point].

Question: Which activation (H2AX phosphorylation) does the source give for `c1cc2c3c(cccc3c1)CC2` here?
Answer: The activation (H2AX phosphorylation) was inconclusive: 7.12%.

Question: With `COC(=O)c1c(C(F)F)nc(C(F)(F)F)c(C2=NCCS2)c1CC(C)C` as the molecule, how does the Potency read?
Answer: Its Potency is “inactive”.

Question: For `c1ccc2sc(SNC3CCCCC3)nc2c1`, which Potency is on record?
Answer: Its Potency is inconclusive: 125 µM [falling, partial curve, poor fit].

Question: Which Potency does the source give for `Cc1ccc(C)c2ccccc12` here?
Answer: The Potency was “inactive”.

Question: With `O=C(CBr)c1ccccc1` as the molecule, how does the Potency read?
Answer: The Potency was inconclusive: 128 µM [activator, single point].

Question: For `CCCCN(CCCC)SN(C)C(=O)Oc1cccc2c1OC(C)(C)C2`, which Potency is on record?
Answer: Its Potency is inconclusive: 129 µM [activator, single point] and inconclusive: 113 µM [activator, single point].

Question: Which Potency does the source give for `CCSCc1ccccc1OC(=O)NC` here?
Answer: The Potency was “inactive”.

Question: Which Potency does the source give for `Nc1ccc(-c2ccc(N)cc2)cc1` here?
Answer: Its Potency is inconclusive: 56 µM [falling, partial curve] and inconclusive: 44.7 µM [falling, partial curve] and inconclusive: 50.5 µM [falling, partial curve].

Question: Which Potency does the source give for `Nc1ccccc1C(=O)Oc1ccc2ccccc2c1` here?
Answer: The Potency was inconclusive: 113 µM [activator, single point].

Question: For `O=[N+]([O-])c1ccc(Oc2ccc(Cl)cc2Cl)cc1`, which Potency is on record?
Answer: Its Potency is inconclusive: 127 µM [activator, single point] and inactive.

Assay: qHTS assay to identify small molecule agonists of the hypoxia (HIF-1) signaling pathway (AID 1224846; active means well fitted activation curve with a large enough effect in the signal ratio in the repeat runs, not every such curve was filed as active; inconclusive means weak or mixed curves; the % refers to the signal ratio)
Settings: HRE-bla ME-180 cells, beta-lactamase ratio, 17 h; activation: at 76.8 µM (top of the series) unless noted
How it was run: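 Compounds from the Tox21 10K library, dissolved in DMSO, are tested for induction of a hypoxia response element–controlled beta-lactamase reporter in ME-180 cells. Exposure lasts 17 hrs at 37C after a 5 hr settling period, followed by CCF4-AM FRET substrate.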

Question: Which Potency does the source give for `CNC(=O)Oc1cccc2ccccc12` here?
Answer: The Potency was “inactive”.

Question: Which Potency does the source give for `N#C/C=C/C#N` here?
Answer: Its Potency is inconclusive: 64.5 µM.

Question: For `CC(C)(C)C(O)C(Oc1ccc(-c2ccccc2)cc1)n1cncn1` (stereo unspecified), which Potency is on record?
Answer: The Potency was inconclusive: 61.6 µM [falling, single point].

Question: For `O=C=Nc1ccc(Cl)cc1`, which Potency is on record?
Answer: The Potency was inconclusive: 6.16 µM [rising, full curve, poor fit].

Question: With `CCN(CC)C(=O)C(C)Oc1cccc2ccccc12` (stereo unspecified) as the molecule, how does the Potency read?
Answer: Its Potency is “inactive”.

Question: For `[N-]=[N+]=[N-]`, which Potency is on record?
Answer: Its Potency is “inactive”.

Question: For `Nc1c(Cl)c(Cl)c(Cl)c(Cl)c1Cl`, which Potency is on record?
Answer: The Potency was “inactive”.

Question: With `Cc1cc(C)c(C(=O)P(=O)(c2ccccc2)c2ccccc2)c(C)c1` as the molecule, how does the Potency read?
Answer: Its Potency is inconclusive: 54.9 µM [single point].

Question: Which Potency does the source give for `O=C(O)CCCOc1ccc(Cl)cc1Cl` here?
Answer: Its Potency is inconclusive: 39.6 µM [rising, partial curve, poor fit].

Question: With `CCCCN(CCCC)SN(C)C(=O)Oc1cccc2c1OC(C)(C)C2` as the molecule, how does the Potency read?
Answer: The Potency was “inactive”.

Question: For `CCOC(=O)C1(c2ccccc2)CCN(CCC(C#N)(c2ccccc2)c2ccccc2)CC1`, which Potency is on record?
Answer: The Potency was inconclusive: 6.01 µM [falling, full curve].

Question: With `COP(=O)(OC)OC` as the molecule, how does the Potency read?
Answer: Its Potency is “inactive”.

Question: Which Potency does the source give for `COP(=S)(OC)Oc1cc(Cl)c(Br)cc1Cl` here?
Answer: The Potency was inconclusive: 24.5 µM [falling, full curve, poor fit].

Question: With `Nc1ccccc1C(=O)Oc1ccc2ccccc2c1` as the molecule, how does the Potency read?
Answer: The Potency was inconclusive: 54.9 µM [single point].

Question: For `O=[N+]([O-])c1ccc(Oc2ccc(Cl)cc2Cl)cc1`, which Potency is on record?
Answer: Its Potency is inconclusive: 55.3 µM [falling, single point].

Question: For `BrCC(Br)C1CCC(Br)C(Br)C1` (stereo unspecified), which Potency is on record?
Answer: The Potency was “inactive”.
